# Assay results as given in PubChem BioAssay AID504706 (National Center for Advancing Translational Sciences (NCATS), 2011).
# In all, about 320,000 compounds went through this assay and about 200 (0.062%) were called active. The inconclusive results got no clear call from the source; some entries with a clear call stand among them for comparison. The call rests on the fitted dose curve; in most records, active means well fitted activation curve with a large enough effect; inconclusive means small, poorly fitted or top-dose-only effect; inactive means no such curve, though single readings can be large or run the other way. No potency is given beside an inconclusive call; the fits are too rough.
# Assay: qHTS assay for re-activators of p53 using a Luc reporter; further: nearly all actives have a fitted effect of over 45% in size; on activity change, positive = activation: % of control where 0% means no effect
# Details: H1299 p53-A138V BP100-luciferase reporter, luminescence, 24 h; series mostly up to 92.2 µM; activity change, positive = activation: at the top concentration
# Procedure, shortened: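 p53-null H1299 cells stably carrying temperature-sensitive p53-A138V and a BP100-luciferase reporter were pinned with compounds (4-point, 1:5 series) and held 24 hrs at 37 deg C. Luminescence was read 10 min after detection reagent.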
# Potency means the concentration at half of the fitted maximal effect; tags describe the fitted curve by direction and shape.
Compound,Potency,"activity change, positive = activation"
O=C(CSc1nnc(-c2ccccn2)o1)Nc1ccc(F)cc1,"inconclusive [activator, single point]",–
COc1cccc(/C=C2\SC(=S)N(CCC(=O)NC3C=CS(=O)(=O)C3)C2=O)c1 (stereo not given),–,inactive: -10.3%
Cn1cccc1C(=O)OCc1cc(-c2ccco2)on1,"inconclusive [activator, partial curve, poor fit]",–
CC(=O)/C(=N/Nc1ccc(Br)cc1)Sc1cccc2cccnc12,"inconclusive [activator, single point]",–
O=C(N/N=C/c1ccc(O)cc1)c1cncc(Br)c1,–,inactive: 10%
CCOc1ccc2[nH]c(=O)c(CN(Cc3ccco3)C(CC)c3nnnn3Cc3ccccc3)cc2c1 (stereo not given),–,inactive: 21%
COc1ccccc1NC(=S)NC1CCCCCC1,"inconclusive [activator, single point]",–
Cc1ccc(-c2nc3ccccc3c(=O)o2)cc1,–,inactive: 18.6%
CCC(=O)c1ccc(OCC(O)CN(C)C2CCCCC2)cc1 (stereo not given),"inconclusive [activator, partial curve, poor fit]",–
Cc1cc(-c2nc3ncccc3o2)ccc1NC(=O)CC(C)C,"inconclusive [activator, partial curve, poor fit]",–
O=C(CN1CCN(c2ccc(O)cc2)CC1)Nc1cc([N+](=O)[O-])ccc1Cl,–,inactive: -1.7%
COc1ccc2nc(NC(=O)c3ccc(-c4cccc([N+](=O)[O-])c4)o3)sc2c1,"inconclusive [activator, single point]",–
O=C(OC1CCCCC1)c1ccc(NC(=O)c2ccco2)cc1,"inconclusive [activator, full curve, poor fit]",–
CCOc1ccc2nc(NC(=O)c3ccc(OCC4CCCO4)cc3)sc2c1 (stereo not given),"inconclusive [activator, partial curve, poor fit]",–
CCOc1ccc2nc(NC(=O)CSc3nnnn3C3CCCCC3)sc2c1,"inconclusive [activator, full curve, poor fit]",–
CCOC(=O)CSc1nnc([C@H](Cc2ccccc2)NC(=O)OC(C)(C)C)o1,–,inactive: -11.6%
CC(C)[C@H](NS(=O)(=O)c1ccc2c(c1)OCCO2)C(=O)OCC(=O)Nc1ccccc1,"inconclusive [activator, single point]",–
C#CCCc1cocc1/C=[N+](\[O-])c1ccc(C(=O)OCC)cc1,"inconclusive [activator, partial curve, poor fit]",–
Cc1cc(C)nc(N2CCC(C(=O)NCc3ccco3)CC2)n1,–,inactive: -9.67%
Cc1ccc(C(=O)NC(=S)NNC(=O)c2ccccc2[N+](=O)[O-])cc1,"inconclusive [activator, partial curve, poor fit]",–
O=C(CCN1C(=O)C2CCCCC2C1=O)Nc1nc(-c2ccccc2)cs1 (stereo not given),–,inactive: -0.0128%
CCc1ccc(NC(=S)N2CCN(C)CC2)cc1,"inconclusive [activator, partial curve, poor fit]",–
O=C(Nc1ccc(N2CCCC2)cc1)c1ccccc1F,"inconclusive [activator, partial curve, poor fit]",–
COc1cccc(N2CCN(C(=S)Nc3cc(C)cc(C)c3)CC2)c1,–,inactive: 1.99%

Compound,Potency,"activity change, positive = activation"
CCc1c(C(=O)NNC(=S)NCc2ccccc2)csc1C,–,inactive: -15.1%
COC(=O)c1c(NC(=O)c2ccc(C)o2)sc2c1CCCCC2,"inconclusive [activator, partial curve, poor fit]",–
O=C(O)c1[nH]c2ccccc2c1NS(=O)(=O)c1ccc(F)cc1,–,inactive: 1.55%
O=C1CSc2ccc(S(=O)(=O)N3CCN(c4ccccc4)CC3)cc2N1,–,inactive: -2.76%
CCc1cc2c(=O)n(-c3ccc(C)cc3)cnc2s1,"inconclusive [activator, partial curve, poor fit]",–
CC1=C(C(=O)NC2CCCc3c2cnn3-c2cccc(C)c2C)OCCO1 (stereo not given),–,inactive: -25.6%
CCc1ccc(NC(=O)c2onc(C)c2Cl)cc1,"inconclusive [activator, partial curve, poor fit]",–
COc1ccc(-n2c(C)cc(C(=O)COc3ccc(C)nc3[N+](=O)[O-])c2C)cc1,"inconclusive [activator, partial curve, poor fit]",–
Cc1cc(NO)nc(-c2ccc(Br)cc2)n1,"inconclusive [activator, full curve]",–
O=C(Nc1ccc(N2CCCC2=O)cc1)c1cccc(F)c1,"inconclusive [activator, partial curve, poor fit]",–
N#Cc1nc(COc2ccccc2F)oc1NCCc1ccccc1,"inconclusive [activator, full curve, poor fit]",–
COc1ccc(CNC(=O)c2ccc(S(=O)(=O)NCc3ccco3)cc2)cc1,"inconclusive [activator, partial curve, poor fit]",–
O=C(c1ccco1)N1CCN(c2nc3ccsc3c(=O)s2)CC1,–,inactive: 5.26%
CN(C)c1ccc(C(=O)/C=C/c2cccnc2)cc1,"inconclusive [activator, partial curve, poor fit]",–
Cc1cc2c(c(=O)n1CC1CCCO1)C(c1ccc3c(c1)OCO3)C(C#N)=C(N)O2 (stereo not given),"inconclusive [activator, single point]",–
Cc1ccc(C(=O)C(NC(=O)c2ccco2)N2CCOCC2)cc1 (stereo not given),"inconclusive [activator, partial curve, poor fit]",–
C/C(=N/NC(=O)OC(C)(C)C)c1ccco1,"inconclusive [activator, partial curve, poor fit]",–
Cc1ccc(/C=C2\CC(C)CC3=C2NC(=S)NC3c2ccc(C)cc2)cc1 (stereo not given),–,inactive: -1.69%
O=C(NC(=S)Nc1ccccc1Br)c1ccco1,"inconclusive [activator, partial curve, poor fit]",–
NC(=O)c1cc([N+](=O)[O-])ccc1NCc1ccc(F)cc1,"inconclusive [activator, partial curve, poor fit]",–
COC(=O)[C@@]1(Cc2ccc(OC)cc2)[C@H]2c3cc(C(=O)N(C)C)n(C[C@H](O)CO)c3C[C@H]2CN1C(=O)c1ccccc1,–,inactive: -2.76%
O=C(Cc1noc2ccccc12)Nc1ccc2ccccc2c1,"inconclusive [activator, full curve, poor fit]",–
O=C(CCc1nc(-c2ccccc2F)no1)Nc1ccc(Oc2ccccc2)cc1,"inconclusive [activator, partial curve, poor fit]",–
Cc1ccc2nc3sc(C(=O)Nc4c(C)[nH]c(=O)[nH]c4=O)c(N)c3cc2c1,–,inactive: 27.8%

Compound,Potency,"activity change, positive = activation"
O=S(=O)(c1ccc(NCCOc2ccccc2)nc1)N1CCCC1,–,inactive: -4.51%
COc1ccc(CNC(=O)COC(=O)CCN2C(=O)C3CC=CCC3C2=O)cc1OC (stereo not given),"inconclusive [activator, single point]",–
Cc1ccc(/C(N)=N/OC(=O)C23CC4CC(CC(C4)C2)C3)cc1,"inconclusive [activator, full curve, poor fit]",–
CCOC(=O)c1cn(CC)c2cc(N3CCOCC3)c(F)cc2c1=O,–,inactive: -2.35%
CCC(=O)NCCc1nc2cc(NC(=O)c3cccs3)ccc2n1C,"inconclusive [activator, single point]",–
CCN(C(=O)COC(=O)/C=C/c1ccccc1[N+](=O)[O-])C1CCS(=O)(=O)C1 (stereo not given),"inconclusive [activator, single point]",–
CSc1cccc(NC(=S)N(CCN(C)C)C(C)c2ccncc2)c1 (stereo not given),–,inactive: 17.7%
O=C1c2ccccc2C(=O)N1CCOc1ccccc1Br,"inconclusive [activator, single point]",–
O=C1OCCN1C(=O)[C@H]1[C@H](c2ccc(F)cc2)C(c2ccc(F)cc2)=NN1c1ccc(Br)cc1,–,inactive: 14.6%
COC(=O)c1ccc(/C=N/OCC(=O)NC2CCCCCCC2)cc1,–,inactive: 0.942%
CCOc1ccc(NC(=O)Nc2cc(C)on2)cc1,"inconclusive [activator, partial curve, poor fit]",–
Cc1ccc(Nc2c(F)c(F)c(F)c(F)c2C(=O)O)cc1,–,inactive: -2.63%
Cc1ccc(Cl)cc1NC(=O)CNC(=O)N1CC(=O)Nc2ccccc21,–,inactive: -1.01%
CC(=O)N1CCc2cc(S(=O)(=O)NCCC(=O)Nc3ccc4c(c3)OCCO4)ccc21,"inconclusive [activator, partial curve, poor fit]",–
COc1ccc(-c2nc(-c3ccccc3)c(-c3cc([N+](=O)[O-])ccc3C)[nH]2)cc1O,–,inactive: 1.39%
CCCCCCNC(=O)CCCCCNS(=O)(=O)c1ccc(Br)cc1,–,inactive: -0.514%
CC1CCN(S(=O)(=O)c2nnc(NC(=O)c3cccc([N+](=O)[O-])c3)s2)CC1,–,inactive: 12.4%
CN(C)/C=C1\C(=O)N(c2ccc([N+](=O)[O-])cc2)N=C1c1ccccc1,"inconclusive [activator, full curve, poor fit]",–
CCCCc1ccc(Nc2ncnc3nc[nH]c23)cc1,"inconclusive [activator, single point]",–
Nc1ccc2oc(-c3ccccn3)nc2c1,"inconclusive [activator, full curve, poor fit]",–
O=C(CSc1nnc2n1CCCN2C(=S)Nc1ccc(Cl)cc1)c1ccccc1,"inconclusive [activator, partial curve, poor fit]",–
O=C(OCCN1C(=O)c2ccccc2C1=O)c1cccc(OC(F)F)c1,"inconclusive [activator, single point]",–
